Reference: PubChem BioAssay AID1508624 (National Center for Advancing Translational Sciences (NCATS), 2021)
Screen size: about 48,000 compounds; about 120 (0.25%) were called active. Inconclusive results (about 4%) are left out. The call rests on the fitted dose curve; in most records, active means well fitted activation curve with a large enough effect; inconclusive means small, poorly fitted or top-dose-only effect, or another doubt; inactive means no such curve, though single readings can be large or run the other way. This is one part of the list.

Assay: Primary qHTS for Identification of Small Molecule Activators of Huntingtin-Antisense Promoter Activity; further: nearly all actives have a fitted effect of over 55% in size
Conditions: HEK293 HTT-AS promoter firefly luciferase reporter, 24 h; series mostly up to 57.5 µM; activity change, positive = activation: at the top concentration
In short: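 Firefly luciferase readout (Dual-Glo, 10 min RT) after 24 h, 37 °C compound exposure (final up to 57.5 uM) of HEK293 reporter cells cultured 24 h beforehand; PTC124 at 50 uM final as control inhibitor; activity scaled vehicle 0%, zero RLU -100%.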

Activity change, positive = activation, inactive:
CCOc1ccc(CCNC(=O)c2cc(=O)[nH]c3ccc(S(=O)(=O)N4CCCCC4C)cc23)cc1OCC (stereo not drawn) -21.1%
Fc1ccccc1-c1nc(N2CCN(c3cccc(Cl)c3)CC2)c2ccccc2n1 -34.1%
COCCNC(=O)Cn1ccc2cc(S(=O)(=O)N3CCCCCC3)ccc21 -14.7%
CCOC(=O)N1CCC(n2c(=O)[nH]c3cc(Cl)ccc32)CC1 -77.1%
CCn1c(=O)c2c(nc3n2CCN3c2ccc(OC)cc2)n(C)c1=O 9.57%
Cc1ccc(-c2noc(CCC(=O)N(C)c3ccccc3F)n2)cc1 -17.8%
Cc1cccc(NC(=O)Cn2c(=O)n(Cc3ccc4c(c3)OCO4)c(=O)c3oc4ccccc4c32)c1C -8.99%
Cc1ccc(CNS(=O)(=O)c2ccc(C(=O)N(C)C)s2)cc1 -5.08%
CC(C)(C)C1CCc2c(sc(NC(=O)C3c4ccccc4Oc4ccccc43)c2C(N)=O)C1 (stereo not drawn) -16.1%
CCn1cc(S(=O)(=O)c2cc(C)cc(C)c2)c(=O)c2cc(F)c(N3CCCCC3)cc21 -7.86%
CCC(=O)N1c2ccc(S(=O)(=O)CCC(=O)NCc3ccccc3OC)cc2CC1C (stereo not drawn) -11.4%
COC(=O)c1nnn(CC(=O)NC(=O)Nc2ccc(F)cc2)c1C(=O)OC 13%
CC(=O)N1CCc2cc(Br)cc(S(=O)(=O)N3CCC(C(=O)Nc4cccc(C)c4C)CC3)c21 -11.3%
Cc1ccc(CNC(=O)Nc2cc(C(=O)NCc3cccc(F)c3)ccc2N2CCCC2)cc1 -23.6%
O=C(Nc1ccc(S(=O)(=O)N2CCC(c3nc4ccccc4s3)CC2)cc1)c1ccccc1 -12.4%
CC1CCCCN1Cc1c(O)ccc2c(=O)c(-c3ccccc3Cl)c(C(F)(F)F)oc12 (stereo not drawn) -8.66%
CCCCn1c(CNC(=O)C23CC4CC(CC(C4)C2)C3)nnc1SCC(=O)Nc1ccc(C)cc1 -33.1%
COCCSc1nc2c([nH]c3ccccc32)c(=O)n1-c1ccc(OC)c(OC)c1 -27.7%
Cc1cccc(CC(=O)N2CC(=O)Nc3ccc(Br)cc3C2c2ccc(F)cc2)c1 (stereo not drawn) -37.8%
CCc1cccc(-n2nnc(-c3nsc(NC(=O)c4cccc(OC)c4)n3)c2C)c1 -27.2%
O=C(Cn1ncc2c3ccccc3n(Cc3ccccc3F)c2c1=O)NCc1ccccc1Cl -16.2%
Cc1cc2c(cc1S(=O)(=O)Nc1cccc(C#N)c1)OCC(=O)N2 -10.9%
COc1ccc(-n2nc(C(=O)N3CCCCC3C)c3c4ccccc4n(C)c3c2=O)cc1Cl (stereo not drawn) -18.6%
COc1cccc(C(=O)Nc2ccccc2C(=O)OCc2cc(=O)n3c4c(sc3n2)CCCC4)c1 -15.4%
COc1ccc(CNC(=O)CN(C)S(=O)(=O)c2ccc3nc(C)sc3c2)cc1 -8%
CC(C)N(C(=O)CSc1cn(CC(=O)N2CCCCCC2)c2ccccc12)C(C)C -29%
Cc1coc2c(C)c3oc(=O)c(CCC(=O)NCCc4ccccc4F)c(C)c3cc12 -4.4%
CCOC(=O)c1ccc(NC(=O)Cn2c(=O)cc(C)c3c(C)nn(-c4ccc(CC)cc4)c32)cc1 -4.95%
COc1cccc(/C=C/c2nc(C#N)c(N3CCC(C(N)=O)CC3)o2)c1 -11%
Cc1ccc(C2C=C(c3ccccc3)Nc3nc(NS(=O)(=O)c4ccccc4)nn32)cc1 (stereo not drawn) -9.88%
CCOc1ccc(CCNC(=O)c2cn(-c3ccc(OC)cc3)c(=O)c3ccccc23)cc1OCC -24.1%
COc1ccc(Br)cc1S(=O)(=O)Nc1cc(-c2cn3ccccc3n2)ccc1C -23.6%
COc1ccc(NC(=O)Cn2c(=O)n(CCC(=O)NCC3CCCO3)c(=O)c3cc(OC)c(OC)cc32)cc1 (stereo not drawn) 0%
CN(Cc1ccccc1)C(=O)c1ccc(CSc2nc3cccnc3n2Cc2ccccc2F)cc1 -20.9%
COc1ccccc1Nc1sc(C(=O)c2ccc(F)cc2)c(N)c1S(=O)(=O)c1ccc(C)cc1 -23.7%
COc1ccc(CNC(=O)CCc2c(C)nc3c(c(C)nn3-c3ccccc3)c2C)cc1 -12.5%
CCOC(=O)c1c(C)n(-c2ccc(OC)cc2)c2ccc(OC(=O)COc3ccccc3)cc12 -29.6%
Cc1ccc(-n2ncc3c(Nc4cccc(Cl)c4)ncnc32)c(C)c1 -1.92%
CN1C[C@H]2c3ccccc3Oc3ccc(Cl)cc3[C@@H]2C1
O=C(Cn1nnnc1-c1ccccc1F)Nc1ccc(OC(F)(F)F)cc1 -9.23%
COc1cc(NC(=O)C2=CC(c3ccc(F)cc3)=NS(=O)(=O)N2C)cc(OC)c1OC -25.8%
c1ccc([C@H]2CN3CCSC3=N2)cc1 -6.84%
CC(C)c1nnc(N2C(=O)c3oc4ccccc4c(=O)c3C2c2ccccc2F)s1 (stereo not drawn) 4.56% [at 11.5 µM, percent change from vehicle, -100% = no light]
CCN(CC)c1cc(C)c2cc(NC(=O)/C=C/c3cc(OC)c(OC)c(OC)c3)ccc2n1 -8.42%
CN(C)CC/C=C1\c2ccccc2Sc2ccc(Cl)cc21 -18.5%
O=C(CSc1nccn1Cc1ccc(F)cc1)Nc1nc2ccccc2s1 -28.4%
CCN(Cc1ccccc1)C(=O)C1CCN(S(=O)(=O)c2ccc3c(c2)CCCN3C(C)=O)CC1 -24.3%
COc1ccc(Cl)cc1NC(=O)c1cn(C2CCCC2)c(=O)c2c1c1ccccc1n2C -3.79%
Cc1cccc(N(CC(=O)Nc2ccccc2C(F)(F)F)S(=O)(=O)c2ccccc2)c1C -24.7%
COc1ccc(OC)c(C2CC(=O)Oc3c2c(=O)n(C)c2ccccc32)c1 (stereo not drawn) -12.3%
O=C(NCC(c1cccs1)S(=O)(=O)c1ccccc1)c1ccc(C(F)(F)F)cc1 (stereo not drawn) -29.3%
COCCCNC(=O)CSc1nc2c(sc3ccccc32)c(=O)n1CCc1ccc(OC)c(OC)c1 -7.83%
COc1ccccc1C(=O)NC1(C(F)(F)F)C(=O)Nc2c1c(=O)[nH]c(=O)n2-c1ccc(F)cc1 (stereo not drawn) -7.37%
Cc1cccc(Cn2c(-c3cccc(Br)c3)nc3ccccc32)c1 -30.4%
CN(C)CCNC(=O)Cn1ccc2cc(S(=O)(=O)N3CCCCCC3)ccc21 -7.55%
Cc1cc(Cl)ccc1OCC(=O)N(Cc1ccco1)Cc1ccccc1F -36.4%
COc1ccc(CNC(=O)CSc2ncc3c(n2)-c2ccc(Cl)cc2N(Cc2ccccc2)S3(=O)=O)cc1 -1.23%
COc1ccc(-c2noc(-c3ccc(N4CCCC4)c([N+](=O)[O-])c3)n2)cc1OC -5.54%
CCC(=O)O[C@]1(C(=O)CCl)[C@@H](C)C[C@H]2[C@@H]3CCC4=CC(=O)C=C[C@]4(C)[C@@]3(F)[C@@H](O)C[C@@]21C
CCc1ccc(-n2nc(C)c3c(C(=O)N4CCN(c5ccccc5)CC4)cc(C)nc32)cc1 -14.9%
CCOc1ccc(CNC(=O)C2CCCN(c3nnc(C)c4c(C)n(-c5ccccc5)nc34)C2)cc1 (stereo not drawn) -19.6%
O=C1C[C@@H](c2ccc(O)cc2)Oc2cc(O)cc(O)c21 20.3%
CCOc1cc(C2NC(=O)c3c(sc4c3CCN(C)C4)N2)ccc1OC(=O)c1ccc(Br)cc1 (stereo not drawn) -10.6%
Cc1nn2c(C)c(C(=O)NC(C)c3ccccc3)cnc2c1-c1ccc(F)cc1 (stereo not drawn) -6.17%
COc1ccc(NC(=O)c2ccco2)cc1NC(=O)C(C)(C)Oc1ccc(Cl)cc1 -14.6%
CCOc1ccc(NC(=O)Cn2cnc3sc(C)c(S(=O)(=O)N4CCN(c5ccccc5OC)CC4)c3c2=O)cc1 -7.6%
COc1ccc(C)cc1NC(=O)c1cc2c(=O)n3cccc(C)c3nc2s1 -5.17%
CCC(=O)N1CCCc2cc(S(=O)(=O)N3CCC(C(=O)NCc4ccc(F)cc4)CC3)ccc21 -15.6%
Cc1cccc(C)c1-n1ncc(C(=O)O)c1C1CCN(C(=O)OC(C)(C)C)CC1 -1.04%
O=C(COc1ccccc1)Nc1nnc(S(=O)(=O)Nc2ccccc2)s1 -9.68%
Cc1ccc(Cl)cc1N1CCN(S(=O)(=O)c2cn(C)c(C)n2)CC1 -23.2%
CC1CCCCN1CCCNC(=O)CN1C(=O)c2cccnc2Oc2ccc(Cl)cc21 (stereo not drawn) -3.63%
CCOc1ccccc1C1C(C(=O)Nc2ccccc2)=C(C)Nc2nc(SCC(=O)c3ccc(C)cc3)nn21 (stereo not drawn) -16.7%
CN(C(=O)CSc1nc(-c2ccccc2)no1)c1ccc(F)cc1 -0.24%
COc1ccc(C(=O)c2sc3nc4c(c(C(F)(F)F)c3c2N)CN(C(C)=O)CC4)cc1OC -36.7%
CCOc1ccccc1NC(=O)Nc1nnc(N2CCCC(C)C2)s1 (stereo not drawn) -19.8%
O=C1OCCN1/N=C/c1ccc([N+](=O)[O-])o1 2.77%
O=C(c1ccc(Cl)cc1)N1CCN(CCc2ccncc2)CC1 -2.62%
Cc1ccc(-c2nnc(Nc3cccc(Cl)c3)c3ccccc23)cc1S(=O)(=O)N1CCN(C)CC1 -7.03%
COc1ccc(C(=O)NCc2ccc3c(c2)CCN3C(C)=O)c(OC)c1 -17.8%
Cc1ccccc1NC(=O)C1CCN(S(=O)(=O)c2c(C)noc2/C=C/c2ccco2)CC1 -11.5%
CCC(=O)N1CCc2cc(CNC(=O)c3cccc(N(C)C)c3)ccc21 -2.17%
COc1ccc(NC(=O)C2CCCN(c3ncnc4onc(C)c34)C2)cc1OC (stereo not drawn) -19.6%
CCC(CN)=C(c1ccccc1)c1ccccc1 -9.65%
CCc1ccccc1N1C(=O)CN(S(=O)(=O)CC)CC1(C)C(=O)NC1CCCCC1 (stereo not drawn) -16.2%
CCC(=O)OC1=C(C(C)=O)N(Cc2ccccc2)S(=O)(=O)c2ccccc21 -5.1%
NC(=O)c1c(OCc2c(F)cc(Br)cc2F)nsc1NC(=O)NCCCCN1CCCC1 -22.6%
CCc1ccccc1NC(=O)Cn1nc(CC)n2c(cc3sccc32)c1=O -7.11%
NC(=O)c1ccc([N+](=O)[O-])cc1Cl -3.12%
COc1ccc(-c2cc(C(=O)N3CCCCC3C)no2)cc1OC (stereo not drawn) 12.6%
CCOc1ccc(OCC)c(NC(=O)c2nnn(CC(=O)Nc3cc(Cl)ccc3OC)c2N)c1 -31.7%
NC(N)=NN=C(/C=C/c1ccc([N+](=O)[O-])o1)/C=C/c1ccc([N+](=O)[O-])o1 -79.7%
COC(=O)C1=C(C)N(C(C)C)C(=O)C1(NC(=O)c1ccccc1OC)C(F)(F)F (stereo not drawn) -7.09%
